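Assay format: 96-well plates, 48-hour exposure. Abbreviation: GI50, concentration required for 50% inhibition of growth.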 The source holds more than one record for some entries. The other results are left out here. An entry can have further records. A record mostly stands for its own series of concentrations, not given here; a value can be the end of its range.
Test system: MDA-MB-468 breast
Experiment: growth of human tumour cells (NCI), 48 h

`CC1(C)CC(=O)c2c(ccc(C(=O)C[C@H](N)CO)c2N)O1` was tested, and the GI50 was 3.9 µM and 210 nM.

From PubChem BioAssay (NCI)
